Assay results: PMC12820563, “FoxP3 forms a head-to-head dimer in vivo and stabilizes its multimerization on adjacent microsatellites”
This is one part of the list.

These sequences were tested against T1, MBP-FoxP1dN (Mus musculus, UniProt P58462 326-579) (assay: PD-seq (MBP pull-down with sequencing); 20 mM Tris-HCl pH 7.5, 100 mM NaCl, 1.5 mM MgCl2, 0.4 uM protein, 0.1 uM dsDNA library, 30 min, room temperature, amylose pull-down; high values mean tight binding). Conditions: protein: recombinant; tags: His6-MBP; chain copies: 2; dsDNA, one strand shown.
T1 sequence: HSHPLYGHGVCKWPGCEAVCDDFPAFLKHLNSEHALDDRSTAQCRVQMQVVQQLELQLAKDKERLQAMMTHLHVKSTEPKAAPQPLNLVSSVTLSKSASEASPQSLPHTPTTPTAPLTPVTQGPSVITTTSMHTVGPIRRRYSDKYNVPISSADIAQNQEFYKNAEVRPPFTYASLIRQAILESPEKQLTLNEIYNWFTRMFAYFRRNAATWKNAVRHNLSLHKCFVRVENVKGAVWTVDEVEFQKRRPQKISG
Procedure, shortened: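 Mouse FoxP3 or FoxP1 fragment lacking the N-terminus, His6-MBP-tagged and expressed in E. coli, was incubated at 0.4 µM with 0.1 µM Klenow-filled degenerate double-stranded DNA library for 30 min at room temperature in Tris pH 7.5 buffer with NaCl and MgCl2. Complexes captured on amylose resin were washed three times and their DNA sequenced on Illumina. Binding is reads-per-million enrichment of pull-down over input, replicates pooled.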

Sequence | binding signal
GATGATTGTTCTCCCAGCTGATGAATTGGGATAATCGAGTAAACAAATTTTCCTAATCTTTCTGTTCAAGCGCCATCTAC | 1.19 RPM ratio (pull-down/input)
GATGATTGTTCTCCCAGCTGATGAATTGTCTCGATCGAGTAAACAAATTTTCCTAATCTTTCTGTTCAAGCGCCATCTAC | 0.988 RPM ratio (pull-down/input)
GATGATTGTTCTCCCAGCTGATGAATTCGCTGGGTCGAGTAAACAAATTTTCCTAATCTTTCTGTTCAAGCGCCATCTAC | 0.757 RPM ratio (pull-down/input)
GATGATTGTTCTCCCAGCTGATGAATTCCAGACGTCGAGTAAACAAATTTTCCTAATCTTTCTGTTCAAGCGCCATCTAC | 0.819 RPM ratio (pull-down/input)
GATGATTGTTCTCCCAGCTGATGAATTCTTGCTTTCGAGTAAACAAATTTTCCTAATCTTTCTGTTCAAGCGCCATCTAC | 1.41 RPM ratio (pull-down/input)
GATGATTGTTCTCCCAGCTGATGAATTATGATTTTCGAGTAAACAAATTTTCCTAATCTTTCTGTTCAAGCGCCATCTAC | 1.19 RPM ratio (pull-down/input)
GATGATTGTTCTCCCAGCTGATGAATTTTAGCATTCGAGTAAACAAATTTTCCTAATCTTTCTGTTCAAGCGCCATCTAC | 1.28 RPM ratio (pull-down/input)
GATGATTGTTCTCCCAGCTGATGAATTGAGGTGGTCGAGTAAACAAATTTTCCTAATCTTTCTGTTCAAGCGCCATCTAC | 0.761 RPM ratio (pull-down/input)
GATGATTGTTCTCCCAGCTGATGAATTGCTGCCGTCGAGTAAACAAATTTTCCTAATCTTTCTGTTCAAGCGCCATCTAC | 0.917 RPM ratio (pull-down/input)
GATGATTGTTCTCCCAGCTGATGAATTCCCCCTCTCGAGTAAACAAATTTTCCTAATCTTTCTGTTCAAGCGCCATCTAC | 0.802 RPM ratio (pull-down/input)
GATGATTGTTCTCCCAGCTGATGAATTAAGTAAGTCGAGTAAACAAATTTTCCTAATCTTTCTGTTCAAGCGCCATCTAC | 0.965 RPM ratio (pull-down/input)
GATGATTGTTCTCCCAGCTGATGAATTTGGCGTCTCGAGTAAACAAATTTTCCTAATCTTTCTGTTCAAGCGCCATCTAC | 0.85 RPM ratio (pull-down/input)
GATGATTGTTCTCCCAGCTGATGAATTAACTTTATCGAGTAAACAAATTTTCCTAATCTTTCTGTTCAAGCGCCATCTAC | 0.926 RPM ratio (pull-down/input)
GATGATTGTTCTCCCAGCTGATGAATTCTAAGGGTCGAGTAAACAAATTTTCCTAATCTTTCTGTTCAAGCGCCATCTAC | 0.819 RPM ratio (pull-down/input)
GATGATTGTTCTCCCAGCTGATGAATTTGGAGCTTCGAGTAAACAAATTTTCCTAATCTTTCTGTTCAAGCGCCATCTAC | 0.812 RPM ratio (pull-down/input)
GATGATTGTTCTCCCAGCTGATGAATTCAGGCAGTCGAGTAAACAAATTTTCCTAATCTTTCTGTTCAAGCGCCATCTAC | 0.864 RPM ratio (pull-down/input)
GATGATTGTTCTCCCAGCTGATGAATTGGATGGATCGAGTAAACAAATTTTCCTAATCTTTCTGTTCAAGCGCCATCTAC | 0.848 RPM ratio (pull-down/input)
GATGATTGTTCTCCCAGCTGATGAATTGGACCAATCGAGTAAACAAATTTTCCTAATCTTTCTGTTCAAGCGCCATCTAC | 0.964 RPM ratio (pull-down/input)
GATGATTGTTCTCCCAGCTGATGAATTCACGATGTCGAGTAAACAAATTTTCCTAATCTTTCTGTTCAAGCGCCATCTAC | 0.92 RPM ratio (pull-down/input)
GATGATTGTTCTCCCAGCTGATGAATTACCAAGGTCGAGTAAACAAATTTTCCTAATCTTTCTGTTCAAGCGCCATCTAC | 0.799 RPM ratio (pull-down/input)
GATGATTGTTCTCCCAGCTGATGAATTCAGCAGGTCGAGTAAACAAATTTTCCTAATCTTTCTGTTCAAGCGCCATCTAC | 0.755 RPM ratio (pull-down/input)

Sequence | binding signal
GATGATTGTTCTCCCAGCTGATGAATTGTCTTTTTCGAGTAAACAAATTTTCCTAATCTTTCTGTTCAAGCGCCATCTAC | 1.3 RPM ratio (pull-down/input)
GATGATTGTTCTCCCAGCTGATGAATTGTGCTACTCGAGTAAACAAATTTTCCTAATCTTTCTGTTCAAGCGCCATCTAC | 1.09 RPM ratio (pull-down/input)
GATGATTGTTCTCCCAGCTGATGAATTTGCACTGTCGAGTAAACAAATTTTCCTAATCTTTCTGTTCAAGCGCCATCTAC | 0.919 RPM ratio (pull-down/input)
GATGATTGTTCTCCCAGCTGATGAATTCTCCCTTTCGAGTAAACAAATTTTCCTAATCTTTCTGTTCAAGCGCCATCTAC | 0.829 RPM ratio (pull-down/input)
GATGATTGTTCTCCCAGCTGATGAATTCGTAACTTCGAGTAAACAAATTTTCCTAATCTTTCTGTTCAAGCGCCATCTAC | 0.902 RPM ratio (pull-down/input)
GATGATTGTTCTCCCAGCTGATGAATTGTTCAGTTCGAGTAAACAAATTTTCCTAATCTTTCTGTTCAAGCGCCATCTAC | 1.07 RPM ratio (pull-down/input)
GATGATTGTTCTCCCAGCTGATGAATTAATTAACTCGAGTAAACAAATTTTCCTAATCTTTCTGTTCAAGCGCCATCTAC | 0.983 RPM ratio (pull-down/input)
GATGATTGTTCTCCCAGCTGATGAATTTACGCACTCGAGTAAACAAATTTTCCTAATCTTTCTGTTCAAGCGCCATCTAC | 1.2 RPM ratio (pull-down/input)
GATGATTGTTCTCCCAGCTGATGAATTCTACCAGTCGAGTAAACAAATTTTCCTAATCTTTCTGTTCAAGCGCCATCTAC | 0.811 RPM ratio (pull-down/input)
GATGATTGTTCTCCCAGCTGATGAATTTACGGTGTCGAGTAAACAAATTTTCCTAATCTTTCTGTTCAAGCGCCATCTAC | 1.11 RPM ratio (pull-down/input)
GATGATTGTTCTCCCAGCTGATGAATTCTTTAACTCGAGTAAACAAATTTTCCTAATCTTTCTGTTCAAGCGCCATCTAC | 0.907 RPM ratio (pull-down/input)
GATGATTGTTCTCCCAGCTGATGAATTAAAAAGATCGAGTAAACAAATTTTCCTAATCTTTCTGTTCAAGCGCCATCTAC | 0.931 RPM ratio (pull-down/input)
GATGATTGTTCTCCCAGCTGATGAATTGGTAAGATCGAGTAAACAAATTTTCCTAATCTTTCTGTTCAAGCGCCATCTAC | 1.01 RPM ratio (pull-down/input)
GATGATTGTTCTCCCAGCTGATGAATTTGCGGTTTCGAGTAAACAAATTTTCCTAATCTTTCTGTTCAAGCGCCATCTAC | 0.97 RPM ratio (pull-down/input)
GATGATTGTTCTCCCAGCTGATGAATTCGTCGACTCGAGTAAACAAATTTTCCTAATCTTTCTGTTCAAGCGCCATCTAC | 0.821 RPM ratio (pull-down/input)
GATGATTGTTCTCCCAGCTGATGAATTATTAGCATCGAGTAAACAAATTTTCCTAATCTTTCTGTTCAAGCGCCATCTAC | 1.52 RPM ratio (pull-down/input)
GATGATTGTTCTCCCAGCTGATGAATTAAGTACTTCGAGTAAACAAATTTTCCTAATCTTTCTGTTCAAGCGCCATCTAC | 0.913 RPM ratio (pull-down/input)
GATGATTGTTCTCCCAGCTGATGAATTCCCGGATTCGAGTAAACAAATTTTCCTAATCTTTCTGTTCAAGCGCCATCTAC | 0.798 RPM ratio (pull-down/input)
GATGATTGTTCTCCCAGCTGATGAATTGTATATGTCGAGTAAACAAATTTTCCTAATCTTTCTGTTCAAGCGCCATCTAC | 1.46 RPM ratio (pull-down/input)
GATGATTGTTCTCCCAGCTGATGAATTCTTCGGGTCGAGTAAACAAATTTTCCTAATCTTTCTGTTCAAGCGCCATCTAC | 0.773 RPM ratio (pull-down/input)
GATGATTGTTCTCCCAGCTGATGAATTGGCATATTCGAGTAAACAAATTTTCCTAATCTTTCTGTTCAAGCGCCATCTAC | 0.976 RPM ratio (pull-down/input)

Sequence | binding signal
GATGATTGTTCTCCCAGCTGATGAATTTGATTAGTCGAGTAAACAAATTTTCCTAATCTTTCTGTTCAAGCGCCATCTAC | 1.04 RPM ratio (pull-down/input)
GATGATTGTTCTCCCAGCTGATGAATTGACGTCTTCGAGTAAACAAATTTTCCTAATCTTTCTGTTCAAGCGCCATCTAC | 1.1 RPM ratio (pull-down/input)
GATGATTGTTCTCCCAGCTGATGAATTATGCTAATCGAGTAAACAAATTTTCCTAATCTTTCTGTTCAAGCGCCATCTAC | 1.21 RPM ratio (pull-down/input)
GATGATTGTTCTCCCAGCTGATGAATTCGACTATTCGAGTAAACAAATTTTCCTAATCTTTCTGTTCAAGCGCCATCTAC | 0.904 RPM ratio (pull-down/input)
GATGATTGTTCTCCCAGCTGATGAATTAAAGAGCTCGAGTAAACAAATTTTCCTAATCTTTCTGTTCAAGCGCCATCTAC | 0.774 RPM ratio (pull-down/input)
GATGATTGTTCTCCCAGCTGATGAATTTAAATTTTCGAGTAAACAAATTTTCCTAATCTTTCTGTTCAAGCGCCATCTAC | 0.987 RPM ratio (pull-down/input)
GATGATTGTTCTCCCAGCTGATGAATTCACCGATTCGAGTAAACAAATTTTCCTAATCTTTCTGTTCAAGCGCCATCTAC | 0.876 RPM ratio (pull-down/input)
GATGATTGTTCTCCCAGCTGATGAATTAGTTGCTTCGAGTAAACAAATTTTCCTAATCTTTCTGTTCAAGCGCCATCTAC | 1.07 RPM ratio (pull-down/input)
GATGATTGTTCTCCCAGCTGATGAATTCTTCACCTCGAGTAAACAAATTTTCCTAATCTTTCTGTTCAAGCGCCATCTAC | 0.802 RPM ratio (pull-down/input)
GATGATTGTTCTCCCAGCTGATGAATTGGAATCGTCGAGTAAACAAATTTTCCTAATCTTTCTGTTCAAGCGCCATCTAC | 0.827 RPM ratio (pull-down/input)
GATGATTGTTCTCCCAGCTGATGAATTCCGGTCGTCGAGTAAACAAATTTTCCTAATCTTTCTGTTCAAGCGCCATCTAC | 0.776 RPM ratio (pull-down/input)
GATGATTGTTCTCCCAGCTGATGAATTCAGTCCCTCGAGTAAACAAATTTTCCTAATCTTTCTGTTCAAGCGCCATCTAC | 0.794 RPM ratio (pull-down/input)
GATGATTGTTCTCCCAGCTGATGAATTGACCTTGTCGAGTAAACAAATTTTCCTAATCTTTCTGTTCAAGCGCCATCTAC | 0.868 RPM ratio (pull-down/input)
GATGATTGTTCTCCCAGCTGATGAATTTACGTATTCGAGTAAACAAATTTTCCTAATCTTTCTGTTCAAGCGCCATCTAC | 1.45 RPM ratio (pull-down/input)
GATGATTGTTCTCCCAGCTGATGAATTATTAGGCTCGAGTAAACAAATTTTCCTAATCTTTCTGTTCAAGCGCCATCTAC | 0.956 RPM ratio (pull-down/input)
GATGATTGTTCTCCCAGCTGATGAATTGTGCAACTCGAGTAAACAAATTTTCCTAATCTTTCTGTTCAAGCGCCATCTAC | 1.29 RPM ratio (pull-down/input)
GATGATTGTTCTCCCAGCTGATGAATTGAACTCGTCGAGTAAACAAATTTTCCTAATCTTTCTGTTCAAGCGCCATCTAC | 0.827 RPM ratio (pull-down/input)
GATGATTGTTCTCCCAGCTGATGAATTAGGCCCGTCGAGTAAACAAATTTTCCTAATCTTTCTGTTCAAGCGCCATCTAC | 0.854 RPM ratio (pull-down/input)
GATGATTGTTCTCCCAGCTGATGAATTGGGAGGATCGAGTAAACAAATTTTCCTAATCTTTCTGTTCAAGCGCCATCTAC | 0.804 RPM ratio (pull-down/input)
GATGATTGTTCTCCCAGCTGATGAATTTAACTTCTCGAGTAAACAAATTTTCCTAATCTTTCTGTTCAAGCGCCATCTAC | 0.878 RPM ratio (pull-down/input)
GATGATTGTTCTCCCAGCTGATGAATTCACTTAATCGAGTAAACAAATTTTCCTAATCTTTCTGTTCAAGCGCCATCTAC | 0.901 RPM ratio (pull-down/input)
